Results reported in a collection of fitness landscapes (doi:10.1126/science.1257360).
The other results are listed elsewhere or left out.

B1: PhoQ; a variant is named by its letters at X, in order, P23837 (parent)
chain: MKKLLRLFFPLSLRVRFLLATAAVVLVLSLAYGMVALIGYSVSFDKTTFRLLRGESNLFYTLAKWENNKLHVELPENIDKQSPTMTLIYDENGQLLWAQRDVPWLMKMIQPDWLKSNGFHEIEADVNDTSLLLSGDHSIQQQLQEVREDDDDAEMTHSVAVNVYPATSRMPKLTIVVVDTIPVELKSSYMVWSWFIYVLSANLLLVIPLLWVAAWWSLRPIEALAKEVRELEEHNRELLNPATTRELTSLVRNLNRLLKSERERYDKYRTTLTDLTHSLKTPLXXLQXXLRSLRSEKMSVSDAEPVMLEQISRISQQIGYYLHRASMRGGTLLSRELHPVAPLLDNLTSALNKVYQRKGVNISLDISPEISFVGEQNDFVEVMGNVLDNACKYCLEFVEISARQTDEHLYIVVEDDGPGIPLSKREVIFDRGQRVDTLRPGQGVGLAVAREITEQYEGKIVAGESMLGGARMEVIFGRQHSAPKDE

Variants of: B1
Assay: enrichment ratio after two sorts for PhoP signalling (ratio (wild type AVST 3.29)); higher = more functional
Conditions: with PhoP (E. coli)

Variant | enrichment ratio
TKLQ | 6.41
WLFW | ≤ 0.25
RLWK | ≤ 0.25
MTPV | ≤ 0.25
DQCT | ≤ 0.25
MFGY | ≤ 0.25
SPAR | ≤ 0.25
KCEY | ≤ 0.25
WEIR | ≤ 0.25
QYVM | ≤ 0.25
EGAA | ≤ 0.25
TAAT | 6.82
RNKA | ≤ 0.25
WFSL | ≤ 0.25
TETV | 17.9
NLPP | ≤ 0.25
FPSK | ≤ 0.25
KFGK | ≤ 0.25
TGGY | 7.07
GGRR | ≤ 0.25
GCFK | ≤ 0.25
WESD | ≤ 0.25
HQLC | ≤ 0.25
MIVP | ≤ 0.25

Variant | enrichment ratio
ASKH | ≤ 0.25
MPQL | ≤ 0.25
MPLI | ≤ 0.25
TLMQ | ≤ 0.25
TTAK | 1.05
NFTA | ≤ 0.25
EYAP | ≤ 0.25
GRTL | ≤ 0.25
DYLT | ≤ 0.25
LPYM | ≤ 0.25
MHYY | ≤ 0.25
IDHA | ≤ 0.25
YTDF | ≤ 0.25
YMAD | ≤ 0.25
YAGG | ≤ 0.25
MVEI | ≤ 0.25
RYWH | ≤ 0.25
NCGR | ≤ 0.25
WFCI | ≤ 0.25
WFHI | ≤ 0.25
DPVD | ≤ 0.25
FWES | ≤ 0.25
SFLC | 4.52
DVEI | ≤ 0.25

Variant | enrichment ratio
YNAK | ≤ 0.25
YQML | ≤ 0.25
LYKD | ≤ 0.25
WRFK | ≤ 0.25
QMLV | ≤ 0.25
ICPY | ≤ 0.25
GTPG | ≤ 0.25
EQHK | ≤ 0.25
YQVE | ≤ 0.25
DARN | ≤ 0.25
ITQS | ≤ 0.25
FTYR | ≤ 0.25
IMRS | ≤ 0.25
GSTT | ≤ 0.25
LGDG | 0.39
VCKT | ≤ 0.25
HRVA | ≤ 0.25
RGPL | ≤ 0.25
EIHH | ≤ 0.25
RLRH | ≤ 0.25
YQRY | ≤ 0.25
KPHH | ≤ 0.25
TTWR | ≤ 0.25
NMKV | ≤ 0.25

Variant | enrichment ratio
DMTE | ≤ 0.25
PENH | ≤ 0.25
SGHS | ≤ 0.25
NMGI | ≤ 0.25
GNMW | ≤ 0.25
MPLS | 0.298
QDQV | ≤ 0.25
VMFS | ≤ 0.25
DDGC | ≤ 0.25
QCLA | 3.62
QWHH | ≤ 0.25
DHDH | ≤ 0.25
KVLM | ≤ 0.25
PLQQ | ≤ 0.25
FRIW | ≤ 0.25
IKGI | ≤ 0.25
NVHL | ≤ 0.25
YHDG | ≤ 0.25
EFSS | ≤ 0.25
VVQP | ≤ 0.25
ELGD | ≤ 0.25
VAEF | ≤ 0.25
VQGC | ≤ 0.25
SIVV | 2.38

Variant | enrichment ratio
DIDG | ≤ 0.25
WNTE | ≤ 0.25
NVSY | ≤ 0.25
IFPM | ≤ 0.25
KMDV | ≤ 0.25
VVCR | 0.281
QIWI | ≤ 0.25
IRDG | ≤ 0.25
RSSK | ≤ 0.25
PYVQ | ≤ 0.25
ICLW | ≤ 0.25
IHQE | ≤ 0.25
GKER | ≤ 0.25
DDGM | ≤ 0.25
DQRA | ≤ 0.25
AGQR | ≤ 0.25
QSDW | ≤ 0.25
LCCQ | ≤ 0.25
LIEG | ≤ 0.25
AWGD | ≤ 0.25
CVLS | ≤ 0.25
HPVS | ≤ 0.25
KHNR | ≤ 0.25
MAAQ | 5.77

Variant | enrichment ratio
AIVL | 6.07
MDRG | ≤ 0.25
APWC | ≤ 0.25
DPCY | ≤ 0.25
MEHI | 4.2
EVLQ | ≤ 0.25
DMIA | ≤ 0.25
NPYP | ≤ 0.25
GNIP | ≤ 0.25
DTMH | ≤ 0.25
AACN | 12.7
CLMF | ≤ 0.25
NSQV | ≤ 0.25
VESR | ≤ 0.25
WRHK | ≤ 0.25
AYPE | ≤ 0.25
VNER | ≤ 0.25
TQIR | ≤ 0.25
WHDD | ≤ 0.25
VPMK | ≤ 0.25
MCIN | ≤ 0.25
HENS | ≤ 0.25
TDGI | ≤ 0.25
NIMT | ≤ 0.25

Variant | enrichment ratio
PMHI | ≤ 0.25
MKAC | ≤ 0.25
RMEN | ≤ 0.25
FACH | ≤ 0.25
YCAL | ≤ 0.25
IGGQ | ≤ 0.25
HTVV | ≤ 0.25
PTQK | ≤ 0.25
IWCQ | ≤ 0.25
LYTT | ≤ 0.25
SHNK | ≤ 0.25
NPNR | ≤ 0.25
PTIK | ≤ 0.25
KAGG | ≤ 0.25
NSVD | ≤ 0.25
TCMT | 14.5
MPNI | ≤ 0.25
YFES | ≤ 0.25
MVHH | ≤ 0.25
VFFW | ≤ 0.25
DKMG | ≤ 0.25
AYLA | ≤ 0.25
WPYV | ≤ 0.25
RPKF | ≤ 0.25

Variant | enrichment ratio
THWP | ≤ 0.25
KNCH | ≤ 0.25
EEHP | ≤ 0.25
VMSH | 0.366
VYAP | ≤ 0.25
IWMG | ≤ 0.25
MGAS | 7.69
VPKH | ≤ 0.25
DGCD | ≤ 0.25
MYLA | ≤ 0.25
VLEM | ≤ 0.25
SPAQ | ≤ 0.25
EWLV | ≤ 0.25
MEMG | 12.8
LNDA | ≤ 0.25
RESR | ≤ 0.25
CNHF | ≤ 0.25
RQGC | ≤ 0.25
RCLR | ≤ 0.25
FTQA | ≤ 0.25
PICR | ≤ 0.25
TNGL | 12.6
NPQK | ≤ 0.25
PQHR | ≤ 0.25

Variant | enrichment ratio
YWLD | ≤ 0.25
IEPW | ≤ 0.25
LYEL | ≤ 0.25
AYMP | ≤ 0.25
VKCK | ≤ 0.25
ENSH | ≤ 0.25
AMCL | 15.7
HNFS | ≤ 0.25
VTLT | 2.14
SNQP | ≤ 0.25
NKCI | ≤ 0.25
FPNW | ≤ 0.25
FCSA | ≤ 0.25
MGIR | ≤ 0.25
HRNQ | 0.435
TWDG | ≤ 0.25
PLIM | ≤ 0.25
KCTR | ≤ 0.25
KPTE | ≤ 0.25
NGWR | ≤ 0.25
RGDY | ≤ 0.25
ASYY | ≤ 0.25
RKTF | ≤ 0.25
NIWC | ≤ 0.25

Variant | enrichment ratio
YGQQ | ≤ 0.25
WYYY | ≤ 0.25
MFRD | ≤ 0.25
HWGW | ≤ 0.25
TLMG | ≤ 0.25
PHWF | ≤ 0.25
PIAV | ≤ 0.25
PYVV | ≤ 0.25
KPSC | ≤ 0.25
QRNE | ≤ 0.25
PNDK | ≤ 0.25
YLSP | ≤ 0.25
WPVK | ≤ 0.25
IDKV | ≤ 0.25
TASA | 9.05
FGRL | ≤ 0.25
SKWK | ≤ 0.25
MAKE | ≤ 0.25
ERWL | ≤ 0.25
WLHP | ≤ 0.25
KVAF | ≤ 0.25
IDHV | ≤ 0.25
ASMP | ≤ 0.25
EQWT | ≤ 0.25

Variant | enrichment ratio
QDTC | ≤ 0.25
KENT | ≤ 0.25
REML | ≤ 0.25
SLMW | ≤ 0.25
NPDR | ≤ 0.25
EMVD | ≤ 0.25
WAPQ | ≤ 0.25
SLPM | 4.28
SAWM | 3.72
MAEK | ≤ 0.25
MDHW | ≤ 0.25
LNHY | ≤ 0.25
HFGA | ≤ 0.25
LNHP | ≤ 0.25
LMCM | ≤ 0.25
FESS | ≤ 0.25
IVMT | ≤ 0.25
DSLK | ≤ 0.25
YIRF | ≤ 0.25
FWYQ | ≤ 0.25
FNPD | ≤ 0.25
DYPK | ≤ 0.25
FKGM | ≤ 0.25
YMLQ | ≤ 0.25

Variant | enrichment ratio
AWYY | ≤ 0.25
QFAT | ≤ 0.25
YGFP | ≤ 0.25
VYQY | ≤ 0.25
RWWA | ≤ 0.25
VTSR | ≤ 0.25
MNWS | 7.32
NLQY | ≤ 0.25
FHWP | ≤ 0.25
KRHI | ≤ 0.25
RNCK | ≤ 0.25
GTVG | 1.38
FPID | ≤ 0.25
TQRP | ≤ 0.25
TAKR | ≤ 0.25
RAQL | ≤ 0.25
VKSA | ≤ 0.25
MQPQ | ≤ 0.25
IHSA | ≤ 0.25
FSRW | ≤ 0.25
YIYL | ≤ 0.25
NRDP | ≤ 0.25
PPMV | ≤ 0.25
INDF | ≤ 0.25

Variant | enrichment ratio
RSYG | ≤ 0.25
DTLY | ≤ 0.25
VPIF | ≤ 0.25
KHHE | ≤ 0.25
LATK | ≤ 0.25
ENGA | ≤ 0.25
VKAR | ≤ 0.25
QAPL | ≤ 0.25
NKPD | ≤ 0.25
QPCT | ≤ 0.25
PKPW | ≤ 0.25
YGNS | ≤ 0.25
ISAV | 0.486
LNQY | ≤ 0.25
NNTM | 3.1
NMFS | ≤ 0.25
AWYH | ≤ 0.25
VKTR | ≤ 0.25
